# PubChem BioAssay AID488969 (Vanderbilt High Throughput Screening Facility, 2010)
# Whole data set: some 110,000 compounds, median “z-score” near -0.1, cut for the highest 2% near 2. This is one part of the list. Activity calls are given as the source filed them.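 How the source made its calls: active means z-score in the third read window above 3 or below -3; inactive means the rest.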
# Biological target: Metabotropic glutamate receptor 8 (Rattus norvegicus) (UniProt P70579)
# Assay: mGluR8 Gi/Go-coupled signaling modulation – cell-based, rat, thallium flux, HTS, primary screen (AID 488969)
# Settings: HEK293 rat mGluR8, GIRK (G protein-gated inwardly rectifying potassium channel) thallium flux, FluoZin2; at 10 µM; stronger effect = higher value; submaximal glutamate (EC20) added with thallium
# Chain of UniProt P70579 (P70579 whole entry, looked up): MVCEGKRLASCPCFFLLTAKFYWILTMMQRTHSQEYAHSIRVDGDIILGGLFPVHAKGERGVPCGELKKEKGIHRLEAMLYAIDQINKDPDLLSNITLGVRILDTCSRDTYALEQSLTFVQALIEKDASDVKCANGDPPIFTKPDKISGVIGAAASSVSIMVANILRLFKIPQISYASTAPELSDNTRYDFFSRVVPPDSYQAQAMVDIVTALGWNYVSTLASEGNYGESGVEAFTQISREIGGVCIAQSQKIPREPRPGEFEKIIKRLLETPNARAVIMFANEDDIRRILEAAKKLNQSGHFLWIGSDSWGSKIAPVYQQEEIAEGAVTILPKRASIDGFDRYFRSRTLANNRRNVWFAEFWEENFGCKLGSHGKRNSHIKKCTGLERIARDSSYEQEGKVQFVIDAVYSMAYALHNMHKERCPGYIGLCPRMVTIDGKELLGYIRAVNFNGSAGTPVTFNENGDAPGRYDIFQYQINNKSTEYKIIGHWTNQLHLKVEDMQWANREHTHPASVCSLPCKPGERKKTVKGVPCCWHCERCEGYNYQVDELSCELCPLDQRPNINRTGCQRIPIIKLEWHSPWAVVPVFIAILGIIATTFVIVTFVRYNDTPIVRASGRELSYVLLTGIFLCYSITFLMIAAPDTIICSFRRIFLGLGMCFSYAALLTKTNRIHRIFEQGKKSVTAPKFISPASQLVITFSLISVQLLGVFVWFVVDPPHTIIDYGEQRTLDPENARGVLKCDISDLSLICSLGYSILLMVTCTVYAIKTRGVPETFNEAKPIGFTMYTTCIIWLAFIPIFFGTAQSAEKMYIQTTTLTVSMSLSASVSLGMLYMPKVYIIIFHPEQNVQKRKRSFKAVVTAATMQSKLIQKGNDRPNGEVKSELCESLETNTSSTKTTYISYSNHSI
row,Structure (SMILES),z-score
1,CCC(C)(C)NC(=O)C(c1cccn1C)N(Cc1ccccc1)C(=O)Cn1nnc2ccccc21 (stereo not given),-0.00609
2,COc1ccc(OC)c(NC(=O)CSc2nnc(Cn3nnc4ccccc43)n2C)c1,-0.116
3,CS(=O)(=O)N(CC(=O)NC1CC1)C1CCCCC1,-0.374
4,CCOC(=O)N1CCC(NC(=O)c2sc(-n3cccc3)nc2C)CC1,-0.417
5,COc1cccc(C2=CC(c3cccc(OC)c3OC(F)F)n3nnnc3N2)c1 (stereo not given),1.27
6,O=C(C1CC1)N1CCc2cc(S(=O)(=O)N(CCO)Cc3ccccc3)ccc21,-0.0768
7,O=C(CCCCCN1C(=O)c2ccccc2C1=O)Nc1ccc2c(c1)OCCO2,-0.289
8,Cc1nnc(SCC(=O)NC2CCCCC2)n(N)c1=O,-0.389
9,N#Cc1nc(-c2ccc(OCc3ccccc3Cl)cc2)oc1NCCCn1ccnc1,0.43
10,Cc1cc([N+](=O)[O-])ccc1NCc1ccccc1,-0.481
11,Cc1c(Cl)cccc1NC(=O)CCN1CCCCC1,-0.0598
12,CCCCN1CN(S(=O)(=O)c2cccs2)c2nc3ccccc3nc21,0.284
13,Cc1cccc(/C=C/C(=O)c2cc(Br)ccc(=O)c2O)c1,2.75
14,CC(C)(C)c1ccc(OCC(=O)O)cc1,0.0593
15,CC(=O)NC1C(OCc2ccccc2)OC(COC(C)=O)C(OC(C)=O)C1OC(C)=O (stereo not given),0.186
16,O=[N+]([O-])c1ccc(S(=O)(=O)Nc2ccc(-c3csc(-c4ccccc4)n3)cc2)cc1,-0.169
17,Cc1ccc(S(=O)(=O)c2cc(N3CCOCC3)nc(-c3ccccc3)n2)cc1,0.349
18,CCOc1ccccc1C(=O)Nc1cc(C(=O)NCCc2ccccc2)ccc1Cl,-0.0618
19,CN(C(=O)c1ccc(NC(=O)C2CC=CCC2C(=O)O)cc1)c1ccccc1 (stereo not given),0.0801
20,CC(OC(=O)Cc1coc2cc3c(cc12)CCC3)C(=O)NCc1ccc2c(c1)OCO2 (stereo not given),0.706
21,Nc1nonc1C(=Nc1ccccc1)NO,-0.164
22,Cc1ccnc(SCc2cc(=O)c(OC(=O)c3ccco3)co2)n1,-0.256

row,Structure (SMILES),z-score
1,CN(C)S(=O)(=O)NC(c1ccccc1)c1ccccc1,0.199
2,O=C(N1CCCCC1)N1CCCN(C(=O)N2CCCCC2)CC1,0.845
3,CCn1c(COc2ccc3c(c2)CCCC3)nnc1SCC(=O)Nc1nccs1,0.066
4,Cc1nn(CC(=O)Nc2ccccn2)c(=O)c2ccccc12,-0.242
5,Cc1ccc(C(C(=O)NCC2CCCO2)N(Cc2ccccc2F)C(=O)Cn2nnc(-c3cccs3)n2)cc1 (stereo not given),-0.157
6,COCCSc1ccccc1C(=O)Nc1ccc2c(c1)OCCO2,0.3
7,CCOc1ccc(C2SCC(=O)N2c2c(C)n(C)n(-c3ccccc3)c2=O)cc1 (stereo not given),0.918
8,O=C1c2ccccc2-c2onc3ccc(Oc4ccccc4)c1c23,-0.193
9,COC(=O)c1ccc(S(=O)(=O)NNC(=O)COc2ccc(C)cc2)cc1,0.426
10,Cc1ccc(C(=O)CSc2ncnc3sc4c(c23)CCC(C)C4)cc1 (stereo not given),0.974
11,O=C(CSc1nnc(Cc2cccs2)n1Cc1ccco1)Nc1cc(Cl)cc(Cl)c1,0.0549
12,COc1ccc(NC(=O)CCc2ccccc2)cc1NC(=O)c1ccco1,-0.225
13,CC(C)(C)c1ccc(S(=O)(=O)N2CCCC2C(=O)NC2=NCCS2)cc1 (stereo not given),0.241
14,Cc1ccccc1Nc1nnc(SCC(=O)NC2CCCc3ccccc32)s1 (stereo not given),-0.382
15,Fc1ccc(N2CCN(Cc3cnc(Oc4ccc(Br)cc4)s3)CC2)cc1,0.648
16,O=C(COC(=O)[C@H](Cc1ccccc1)NS(=O)(=O)c1ccccc1F)NC1CCCCC1,-0.525
17,COc1cc(NC(=O)COc2cccc(OC)c2)cc(OC)c1,0.638
18,S=C(NCCc1ccccc1)N/N=C/c1ccccc1Cl,0.283
19,CC1(C)Cc2ccccc2-c2c1c(=O)n(Cc1ccccc1)c1nnnn21,0.0459
20,Cc1cc(NC(=O)CSc2ccc3nnc(-c4cccs4)n3n2)no1,-0.611
21,O=C(O)CCC(=O)N1CC=C(c2ccccc2)CC1,-0.42
22,COc1ccc(-c2cc(C(=O)NC(C)C)no2)cc1,-0.699

row,Structure (SMILES),z-score
1,Cc1cc(C)c(N(C(=O)Cn2nnc3ccccc32)C(C(=O)NC(C)(C)C)c2ccsc2)c(C)c1 (stereo not given),-0.119
2,CS(=O)(=O)c1ccc(Cl)c(S(=O)(=O)NCc2ccccc2)c1,0.117
3,CCOc1ccc(C(=O)NCC(=O)OCc2cc(C(C)=O)ccc2OC)cc1,-0.3
4,O=C(NCc1ccccc1)C(=O)NCC1COc2ccccc2O1 (stereo not given),0.58
5,COc1cccc(CC(=O)Nc2ccc3nc(C)sc3c2)c1,-0.206
6,CC(=O)c1sc(Nc2nc3ccc(F)cc3s2)nc1C,0.302
7,Cc1cccc(-n2cnc(C(=O)Nc3cccnc3)c2)n1,0.694
8,O=C1C2CC=CCC2C(=O)N1c1ncn[nH]1 (stereo not given),-0.102
9,CCc1ccc(N2CC(C(=O)NCc3ccc4c(c3)OCO4)CC2=O)cc1 (stereo not given),-0.18
10,COc1cc(OC)cc(-c2nc3ccccc3c(=O)o2)c1,-0.0482
11,C=CCn1c(COc2ccccc2F)nnc1SCC(=O)Nc1cc2oc3ccccc3c2cc1OC,0.0078
12,O=C(NN=C1CCN(Cc2ccccc2)CC1)c1cc2ccccc2cc1O,0.155
13,O=C(Cn1nnc(-c2ccccc2F)n1)Nc1ccc(C(=O)N2CCOCC2)cc1,-0.416
14,Cc1ccc2nc(-c3ccc(NC(=O)COC(=O)c4ccc(=O)[nH]c4)cc3)sc2c1,0.666
15,CN(C(=O)COc1cc(=O)n(C)c2ccccc12)c1ccc(Cl)cc1,1.04
16,CCOC(=O)N1CCC(N(C(=O)Nc2ccc(Cl)c(Cl)c2)C(C)CC)CC1 (stereo not given),-0.099
17,CC(NC(=O)/C(C#N)=C/c1ccc(Cl)c([N+](=O)[O-])c1)c1ccccc1 (stereo not given),-0.278
18,O=C(OC1CCN(c2ncc(C(F)(F)F)cc2Cl)CC1)c1cccc(C(F)(F)F)c1,0.0627
19,O=C(CSc1nnc(SCc2ccccc2)s1)N/N=C/C=C/c1ccco1,-0.182
20,Cc1ccc2nc(N(CCN(C)C)C(=O)c3cc(Cl)sc3Cl)sc2c1,0.124
21,COC(=O)c1ccccc1NC(=O)CSc1n[nH]c(C)n1,-0.104
22,Oc1ccc(/C=N/Nc2cc(N3CCCC3)nc(N3CCCC3)n2)cc1O,-0.294

row,Structure (SMILES),z-score
1,CCCNC(=O)NCCc1c(C)[nH]c2ccccc12,-0.0503
2,COc1ccccc1C(=O)NCc1ccc(-c2nc3ccccc3s2)cc1,-0.239
3,COC(=O)c1cccc(NC(=O)Cc2ccc(OC)cc2)c1C,0.303
4,OCCOCCNc1ncnc2c1cnn2-c1ccc(Cl)cc1,0.264
5,CCCNC(=O)C(CC)NS(=O)(=O)c1ccc(OC)cc1 (stereo not given),-0.865
6,COc1ccc(Cl)cc1C(=O)CSc1nnnn1C1CCCC1,active: 7.32
7,CCCCC(CC)CNC(=O)c1[nH]c(C)c(C(C)=O)c1C (stereo not given),0.339
8,Cc1ccccc1NC(=O)Cn1cnc2c(oc3ccccc32)c1=O,-0.113
9,Cc1cc(=O)oc(C)c1C(=O)OCC(=O)c1ccc2ccccc2c1,-0.249
10,CCCc1cc(=O)oc2cc(OCc3ccc(OC)cc3)c(Cl)cc12,-0.084
11,CCOC(=O)CSc1nnc(-c2cccs2)n1-c1ccccc1,-0.939
12,CC(C)C1Cc2c(sc3c2c(=O)n(Cc2ccccc2)c2nncn32)CO1 (stereo not given),active: -3.44
13,CSCC[C@H](NC(=O)Nc1cccc(C(F)(F)F)c1)C(=O)O,-0.23
14,CC1CCC/C(=C(\C#N)c2nc(-c3cc4ccccc4oc3=O)cs2)C1 (stereo not given),0.525
15,Cc1ccc2[nH]c(=O)c(CN(CCCO)S(=O)(=O)c3c(C)ccc4nsnc34)cc2c1,0.0145
16,CC(C)(C)N(C=C(Cl)Cl)C(=O)NC1CCCCC1,1.18
17,CCCOC(=O)CSc1nc(N)c(C#N)c(CC)c1C#N,0.792
18,Cc1ccc(C(=O)OCCN2CCN(c3ncc(C(F)(F)F)cc3Cl)CC2)cc1,0.0566
19,Cc1ccc(-c2nc(CSCC(=O)Nc3cc(C)on3)c(C)o2)cc1,-0.707
20,Cc1ccc(-c2noc(CSc3ccccc3)n2)cc1,0.377
21,CCC(=O)Oc1ccc(C(=O)Nc2c[nH]c(=O)[nH]c2=O)cc1,-0.234
22,CC(C(=O)O)C1SC(=O)NC1=O (stereo not given),0.297

row,Structure (SMILES),z-score
1,O=S(=O)(NC1CCCCC1Oc1ccccc1)c1ccccc1 (stereo not given),-0.656
2,CC(=O)N1CCC(N(CCN2CCOCC2)C(=O)Nc2ccc(Cl)c(Cl)c2)CC1,-0.368
3,CC(NC(=O)COC(=O)c1ccc2c(c1)S(=O)(=O)N=C1CCCCCN12)C12CC3CC(CC(C3)C1)C2 (stereo not given),0.243
4,CC1=C(C(=O)Nc2ccccc2C)C(c2cccs2)NC(=S)N1 (stereo not given),-0.323
5,O=C(Nc1ccccc1)Nc1ccc(Br)c(Cl)c1,0.1
6,O=C(CSc1nccc(=O)[nH]1)N1CCc2ccccc2C1,-0.246
7,CC(C)CN=Cc1c(O)c([N+](=O)[O-])cc2oc3c(c12)CCCC3,-1.28
8,Cn1c(SCC(=O)c2cc3ccccc3o2)nnc1-c1ccccc1,active: 4.93
9,COc1ccc(NC(=O)CC(c2ccc(F)cc2)c2ccc(OC(C)C)cc2)cc1 (stereo not given),-2.06
10,CCO/C(C)=N/n1c2nc3ccccc3nc2c2c(=O)n(C3CCCC3)c(C)nc21,1.96
11,Cc1ccc(C)c(S(=O)(=O)NCc2cccnc2)c1,-0.183
12,O=C(O)c1nc(N2CCCCC2)ncc1Cl,-0.206
13,Cc1ccc(C)c(C(=O)CCC(=O)Nc2cccnc2)c1,-0.00121
14,CCCn1c(C)cc(C(=O)CSc2nc3nc(C)cc(C)n3n2)c1C,-0.661
15,CC(Sc1nnc(-c2ccc(Cl)cc2Cl)n1Cc1ccccc1)C(=O)Nc1nccs1 (stereo not given),-1.54
16,N#CCSc1nc2[nH]ncc2c(=O)n1-c1ccccc1Br,0.0767
17,Cc1cc2ccccc2n1CCNC(=O)COc1ccccc1,-0.407
18,S=C(Nc1ccc(Cl)cc1Cl)N1CCOCC1,-0.325
19,CCc1ccccc1N(CC)C(=O)c1cn(CC)c(=O)c2cc(OC)c(OC)cc12,-0.842
20,CC1CCc2nn(CC(=O)NCCN3CCCCC3C)cc2C1 (stereo not given),0.216
21,O=C(CSCc1ccccc1)N1CCN(Cc2ccc3c(c2)OCO3)CC1,-0.236
22,CCN(CC)CCN1C(=O)C(=O)/C(=C(/O)c2c(C)[nH]c(C(=O)OC)c2C)C1c1cccs1 (stereo not given),-0.36
